Reference: patent US10941208B2, “Anti-MUC16 antibodies” (Regeneron Pharmaceuticals, Inc., priority 2016, dated 2021)

Key:
[1] = biological target: T1, hMUC16 endogenously expressed on OVCAR-3 cell line (Homo sapiens, UniProt Q8WXI7); assay: Electrochemiluminescence (MSD) cell binding, OVCAR-3 vs SK-OV-3; details: cell-based binding assay
T1 construct: OVCAR-3 cells endogenously express MUC-16; endogenous in cells; host or cells: OVCAR-3 (also luciferase-transduced OVCAR3-Luc)
Procedure: The ability of anti-MUC16 antibodies to bind specifically to endogenously expressing MUC16 on the human ovarian carcinoma cell line (OVCAR-3) was evaluated via an electrochemiluminescence based detection assay (Meso Scale Discovery (MSD), Rockville, Md.). […] Detached cells were then washed once in 1×PBS supplemented with Ca^2+/Mg^2+ and counted (Cellometer Auto T4 cell counter, Nexcelom Bioscience, Lawrence, Mass.). Approximately 1.0×10^4 cells were plated in MULTI-ARRAY 96-well carbon electrode plates (MSD) and incubated for 1 h at 37° C. […] Next, serial dilutions of anti-MUC16 or control antibodies (0.85 pM-50 nM) and no-antibody buffer controls were added to the plate-bound cells and incubated for 1 h at room temperature (RT). […] Plate-bound antibodies were detected with a SULFO-TAG™-conjugated anti-human kappa light chain antibody (Regeneron) or a SULFO-TAG™-conjugated anti-mouse IgG antibody (Jackson Immunoresearch, West Grove, Pa.) for 1 h at RT. Post-wash, plates were developed with Read Buffer (MSD) according to manufacturer's protocol and luminescent signals were recorded with a SECTOR Imager 6000 (MSD) instrument.
Luminescence intensity, measured in relative light units (RLU), for the two cell lines was recorded to indicate the binding intensity of each antibody.

[2] = biological target: T2, soluble monomeric human MUC16 (hMUC16.mmh, last five SEA domains, SEQ ID: 1902) (Homo sapiens, UniProt Q8WXI7); assay: Surface plasmon resonance (BIACORE) binding to hMUC16 fragment at 25° C.; design: key to ka / kd / KD / t 1/2: NB: No binding; details: for KD / ka / kd / t 1/2: Hybridoma anti-MUC16 antibodies (H1M, H2M, H3M), 25° C., Table 5A; for binding to soluble truncated human MUC16 protein via surface plasmon resonance (in words): truncated format encompassing the last five SEA domains
T2 construct: mmh (myc-myc-hexahistidine)
T2 sequence (Q8WXI7 with tags, fused parts or gaps): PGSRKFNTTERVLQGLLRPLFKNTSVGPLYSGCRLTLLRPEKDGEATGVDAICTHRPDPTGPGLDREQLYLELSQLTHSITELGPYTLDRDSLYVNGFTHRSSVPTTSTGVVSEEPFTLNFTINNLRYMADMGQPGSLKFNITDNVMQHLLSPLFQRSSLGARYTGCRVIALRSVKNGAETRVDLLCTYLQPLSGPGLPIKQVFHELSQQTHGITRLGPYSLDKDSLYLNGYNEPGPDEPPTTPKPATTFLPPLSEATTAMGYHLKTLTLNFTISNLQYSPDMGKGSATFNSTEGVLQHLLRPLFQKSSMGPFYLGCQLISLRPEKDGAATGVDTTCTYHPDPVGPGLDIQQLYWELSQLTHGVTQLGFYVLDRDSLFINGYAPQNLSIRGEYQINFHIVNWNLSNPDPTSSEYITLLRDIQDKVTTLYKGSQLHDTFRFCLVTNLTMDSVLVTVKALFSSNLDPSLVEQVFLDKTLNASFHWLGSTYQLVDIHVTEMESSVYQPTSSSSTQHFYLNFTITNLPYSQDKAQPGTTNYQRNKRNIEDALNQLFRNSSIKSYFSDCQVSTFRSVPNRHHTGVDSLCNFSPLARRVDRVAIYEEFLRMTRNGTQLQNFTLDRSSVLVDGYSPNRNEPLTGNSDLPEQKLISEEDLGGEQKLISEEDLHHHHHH

Molecule | specific binding to endogenous human MUC16 expressed on OVCAR-3 cells (in words) [1] | KD [2] | ka [2] | kd [2] | t 1/2 [2] | binding to soluble truncated human MUC16 protein via surface plasmon resonance (in words) [2]
H3M9524N: anti-MUC16 hybridoma antibody, mIgG3; HCVR/LCVR SEQ ID NOs: 346/354 (antibody, V domains shown) VH: QVQLQQWGAGLLKPSETLSLTCAVYGGSFSDYYWSWIRQPPGKGLEWIGEINHRGKTNYNPSLKSRVSISVDPSKNQFSLKLSSVTAADTAVYYCARQGWNYAIFDYWGQGILVPVSS VL: DIVMTQSPDSLAVSLGERATINCKSSQSVLYRSNNKNYLGWYQQKPGQPPKLLIYWASSREAGVPDRFSGSGSGTEFTLTISSLQAEDEAVYYCQQYYSSPPTFGQGTKVEIK | specific binding | NB | NB | NB | NB | no binding
H3M9525N: anti-MUC16 hybridoma antibody, mIgG3; HCVR/LCVR SEQ ID NOs: 362/370 (antibody, V domains shown) VH: QVQLQQWGAGLLKPSETLSLTCAVYGGSFSGYYWSWIRQPPGKGLEWIGEINHSGKTTYSPSLKSRVTISVDTSKSQFSLKLSSVTAADTAVYYCARQGLNYAIFDYWGQGTLVTVSS VL: YIVMTQSPDSLAVSLGERATINCKSSRSILYTSNNKNYLAWYQQRPGQPPKLLIYWASTRESGVPDRFSGSGSGTDFTLTISSLQAEDVAVYYCQQYFSSPPTFGQGTKVEIK | specific binding | NB | NB | NB | NB | no binding
